We go through 43 sequences from the supplement of paper PMC11417369.

± gives the standard deviation of the averaged measurements. The list shows a part of the results.

This assay concerns PfAP2-I AP2 domain 3 (GST-tagged). The experiment in a line: gcPBM binding intensity (ln(normalized median fluorescence intensity)); higher = stronger DNA binding. A digest of the protocol:
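GST-fused DNA-binding domains of P. falciparum, expressed in E. coli, were applied at about 25 μg on average for 1 h to an Agilent 4 × 180k array of primer-extended double-stranded 36-bp intergenic genomic probes and negative controls. Binding intensity is the highest Masliner-normalised natural-log median intensity across replicate spots of either probe orientation, measured with Alexa488 anti-GST antibody and a 488 nm scan.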
Consider “CAAATATGTCTTATTCGTACACATATATATATATAT [XGTACX_site8817]”, for which the “gcPBM binding intensity (ln)” value worked out at 9.55 ± 0.28.

In the case of “TTTCTTTATAAATTAATATTCACAACACAAAATATA [CACACA_negctrl_site450]”, the “gcPBM binding intensity (ln)” value is 7.72 ± 0.4.

Consider “AAGAAAATAAAAAATAAGCATAATATGATATGATAT [TGCATGCA_negctrl_site196]”, for which the “gcPBM binding intensity (ln)” value turned out to be 7.64 ± 0.52.

For “GTGCATATAAGGAAGTGTACGAAAAAAAATATTCCA [XGTACX_site8490]”, the “gcPBM binding intensity (ln)” value turned out to be 9.88 ± 0.56.

In the case of “AAAAATTTGGCATACACACACACACCGACACAGACA [CACACA_site4489]”, the “gcPBM binding intensity (ln)” value worked out at 8.29 ± 0.22.

Regarding “ATGTATGTTTATTACTATTTTGAGAATAGACTATAA [CACACA_negctrl_site1366]”, the “gcPBM binding intensity (ln)” value was 7.52 ± 0.4.

“AGTTATATGATTAATACACACAACAAATGTTTCTTC [CACACA_site1092]”: the “gcPBM binding intensity (ln)” value came to 7.78 ± 0.57.

Take “AATTTGGTGTGTGTAAAAGTATGTGTCTATATTTAT [GTGCAC_negctrl_site166]”: the “gcPBM binding intensity (ln)” value came to 8.36 ± 0.38.

On to “ACGACTAAATATATGAGTACATATATATATAAATAT [XGTACX_site7522]”, for which the “gcPBM binding intensity (ln)” value turned out to be 7.51 ± 0.42.

As for “AAGAATCATATTTAAACACACATACAGATATATATA [CACACA_site5787]”, the “gcPBM binding intensity (ln)” value stood at 7.79 ± 0.59.

Take “TCTAAAATAAATAATGCATGTTAAAAAAAAATATAT [TGCATGCA_site562]”: the “gcPBM binding intensity (ln)” value came to 8.09 ± 0.75.

Turning to “TGCAAAAAATTCCACACACACACACCCATATAAATA [CACACA_site1230]”, the “gcPBM binding intensity (ln)” value stood at 8.02 ± 0.2.

As to “AATTAAAATATATATATACACACGTAATTATATATA [CACACA_site3819]”, the “gcPBM binding intensity (ln)” value turned out to be 7.38 ± 0.43.

Regarding “ATTGTGGCAATATATTGTACATGTAATATAAATATA [XGTACX_site5415]”, the “gcPBM binding intensity (ln)” value worked out at 8.1 ± 0.31.

Regarding “AAAAAAAAAAAAAAGAGTACTTTTTTCTCATTACTA [XGTACX_site8353]”, the “gcPBM binding intensity (ln)” value worked out at 7.99 ± 0.54.

As for “AAAAAAAAAAAAATAGGTACGTAAATATTTCTTTAA [XGTACX_site6423]”, the “gcPBM binding intensity (ln)” value is 7.68 ± 0.34.

For the sequence “TCTTTTAGTTTTATCCACATAATAAAAAGCAAAAAA [GTGCAC_negctrl_site368]”, the “gcPBM binding intensity (ln)” value was determined as 7.92 ± 0.47.

Turning to “TATTCTTCAATTTAAAGTACAAAAATTACTATACTT [XGTACX_site6599]”, the “gcPBM binding intensity (ln)” value stood at 7.58 ± 0.28.

As to “AGAACCATATATAAATGTACATGTTAATATGAATAA [XGTACX_site130]”, the “gcPBM binding intensity (ln)” value worked out at 8.16 ± 0.52.

For “GGACAAAAAAAAAAAATAAAATAAAAATAAATAAAT [XGTACX_negctrl_site106]”, the “gcPBM binding intensity (ln)” value turned out to be 7.33 ± 0.61.

With “AAATATATATGAAGATGTACATATATATATGTAAAT [XGTACX_site4039]”, the “gcPBM binding intensity (ln)” value stood at 7.65 ± 0.51.

In the case of “TAACACTTATAAAAAAGTACTGATGAAATAATACTA [XGTACX_site7305]”, the “gcPBM binding intensity (ln)” value came to 7.49 ± 0.33.

As to “AAAAATTCCAGACACACACACACATATAAATAAATA [CACACA_site1232]”, the “gcPBM binding intensity (ln)” value was 7.77 ± 0.59.

On to “TGTTAATAAAGGTGTACACAAAATAAAAAAAATTAT [CACACA_site4288]”, for which the “gcPBM binding intensity (ln)” value was found to be 8.63 ± 0.45.

“TTTGTATAGTTGTAGGTGCATATCATTTTTAAATGT [GTGCAC_site9708]”: the “gcPBM binding intensity (ln)” value was determined as 10.3 ± 0.36.

Regarding “TATAATTATATTTGGAGTACAAATTTTTTTTTTTTT [XGTACX_site7494]”, the “gcPBM binding intensity (ln)” value was 7.765 ± 0.007.

On to “AAAAAAAAAGGTAACGCATGCTTTTAGATTATATTA [TGCATGCA_site398]”, for which the “gcPBM binding intensity (ln)” value is 7.3 ± 0.73.

“AAGTATGCTTGCTACTTATTAAGTGGCAATATAATT [XGTACX_negctrl_site74]”: the “gcPBM binding intensity (ln)” value came out at 8.34 ± 0.35.

On to “CTTTTTAATAAATATACACACACAAAAAAAAAAAAA [CACACA_site9316]”, for which the “gcPBM binding intensity (ln)” value came out at 8.09 ± 0.71.

“CACTTTATACGTAATTGTACTTTTTCTTTTTTTTAT [XGTACX_site3175]”: the “gcPBM binding intensity (ln)” value came to 8.02 ± 0.47.

Regarding “ACTTACTAATTAATGGGTACATACACACATATATAC [XGTACX_site1362]”, the “gcPBM binding intensity (ln)” value amounted to 8.09 ± 0.56.

Turning to “TATTCAAAGAAAGACAGTACGTGTAGCAAACAACCT [XGTACX_site4218]”, the “gcPBM binding intensity (ln)” value was determined as 7.9 ± 0.49.

On to “TAAATAAAGTATAATGCATGCTATTATAATATTAAT [TGCATGCA_site825]”, for which the “gcPBM binding intensity (ln)” value is 7.75 ± 0.49.

“AATAAAAAAATAGAAACACACATTAAAAAAAATAAA [CACACA_site1333]”: the “gcPBM binding intensity (ln)” value came out at 7.54 ± 0.47.

As to “ATGATATATAGACACACACACATATTTATATACATT [CACACA_site6404]”, the “gcPBM binding intensity (ln)” value was found to be 8.04 ± 0.45.

In the case of “TATTTTTCCATATGCACACACACCGTATATATAATA [CACACA_site1127]”, the “gcPBM binding intensity (ln)” value stood at 9.43 ± 0.23.

Consider “ATAACAAAATAAAACACACACACAAATGTACATATA [CACACA_site2425]”, for which the “gcPBM binding intensity (ln)” value is 7.89 ± 0.47.

For “CATATACACCAACACACACACACACCCACAAAAAAA [CACACA_site496]”, the “gcPBM binding intensity (ln)” value is 8.29 ± 0.15.

In the case of “AAATAAATAATTTAATGTACATATATAATATATATA [XGTACX_site1831]”, the “gcPBM binding intensity (ln)” value was 8.16 ± 0.49.

With “CTATTTATTATATATACATGCATATATATATTAATA [TGCATGCA_site527]”, the “gcPBM binding intensity (ln)” value was determined as 8.16 ± 0.52.

Regarding “TATTCTAATTTTTAAACACACAAATATAAATAAGTA [CACACA_site3149]”, the “gcPBM binding intensity (ln)” value amounted to 7.67 ± 0.49.

“TAAAAATGTGTATGTACACACTTTATTTTTAATACA [CACACA_site7235]”: the “gcPBM binding intensity (ln)” value was determined as 7.8 ± 0.13.

On to “TATTAAACGAAACACACACACACACCCATATATAAA [CACACA_site759]”, for which the “gcPBM binding intensity (ln)” value is 8 ± 0.18.
